From PubChem BioAssay AID504706 (National Center for Advancing Translational Sciences (NCATS), 2011)
Hit rate of the full screen: of about 320,000 compounds, about 200 (0.062%) were called active. Inconclusive results, whose numbers are uncertain, are shown with a selection of clear calls. Calls come from the whole dose curve; as a rule, active = well fitted activation curve with a large enough effect; inconclusive = small, poorly fitted or top-dose-only effect; inactive = no such curve, though single readings can be large or run the other way. No potency is given beside an inconclusive call; the fits are too rough.

Test: qHTS assay for re-activators of p53 using a Luc reporter; note: nearly all actives have a fitted effect of over 45% in size; for activity change, positive = activation: % of control where 0% means no effect
Conditions: H1299 p53-A138V BP100-luciferase reporter, luminescence, 24 h; series mostly up to 92.2 µM; activity change, positive = activation: at the top concentration
How it was run: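 H1299 (p53-null), stable ts p53-A138V + BP100-Luc; 1000 cells/well, Opti-MEM/10% FBS; cpd 4 pt, 1:5; 24 h, 37 deg C, 5% CO2; detection reagent 10 min RT; luminescence.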
Potency is the fitted concentration of half-maximal effect; tags give direction and shape of the fitted curve.

SMILES	activity change, positive = activation	Potency
Nc1nc(COC(=O)C2CC(=O)N(Cc3ccccc3Cl)C2)nc(Nc2ccccc2)n1 (centres undefined)	inactive: 11.3%	–
CCC(=O)N(CCO)Cc1cc2ccc(C)c(C)c2[nH]c1=O	inactive: -6.51%	–
O=C(COc1ccc(Cl)cc1Br)NC(=O)NC1CCCC1	–	inconclusive [activator, full curve, poor fit]
OC1=C(O)c2nc3ccccc3nc21	–	inconclusive [activator, single point]
COc1ccc(/C=C/C(=O)OCC(=O)Nc2ccc(OC)c(S(=O)(=O)N3CCCCC3)c2)cc1	inactive: 15.4%	–
CC(C)OC(=O)c1ccc(COC(=O)c2cccc(-c3nnc(-c4ccccc4)o3)c2)cc1	–	inconclusive [activator, partial curve, poor fit]
CCOc1ccc(S(=O)(=O)N2CCC(C(=O)NCCN3CCOCC3)CC2)cc1C	inactive: -3.89%	–
CCOc1ccc2oc(C(=O)NCC3CCCO3)c(C)c2c1 (centres undefined)	–	inconclusive [activator, single point]
CN(C)S(=O)(=O)c1ccc2c(c1)nc(CCC(=O)NCc1ccc(Cl)cc1)n2C	–	inconclusive [activator, single point]
CCc1nnc(NC(=O)c2ccc(C)o2)s1	–	inconclusive [activator, partial curve, poor fit]
CC(C)N1C(=O)CN(C2CCCCCC2)C(=O)C1c1ccccc1F (centres undefined)	–	inconclusive [activator, partial curve, poor fit]
Cc1cc(C)nc(N2CCC(C(=O)NCc3ccccc3F)CC2)n1	inactive: -0.792%	–
O=c1[nH]c2cc3c(cc2cc1CN(Cc1cccs1)Cc1nnnn1Cc1ccco1)OCCO3	inactive: -1.09%	–
CCN(CC)c1ccc(NC(=O)CSc2nc(C3CC3)nc3ccccc23)cc1C	inactive: -0.208%	–
Cn1c(C(=O)Nc2ccc3c(c2)OCCO3)cc2sccc21	–	inconclusive [activator, full curve, poor fit]
O=C1NC(c2cccc(Br)c2)=N/C1=C\c1ccco1	–	inconclusive [activator, full curve, poor fit]
Cc1cc(NC(=O)c2coc(=O)c(Br)c2)ccc1C(C)C	–	inconclusive [activator, single point]
Cc1cccc(-n2c(C)cc(C(=O)NC3CCCCC3)c2C)c1	–	inconclusive [activator, full curve, poor fit]
Cc1ccnc(NC(=O)c2cnc(Cl)c(Cl)c2)c1	–	inconclusive [activator, partial curve, poor fit]
Cc1ccn2cc(C(=O)Nc3nnc(C)s3)nc2c1	–	inconclusive [activator, partial curve, poor fit]
CC1CCN(C(=O)CS(=O)(=O)Cc2ccccc2)CC1	–	inconclusive [activator, full curve, poor fit]
COc1ccc2cc(CCNC(=O)c3ccco3)c(=O)[nH]c2c1	–	inconclusive [activator, full curve, poor fit]

SMILES	activity change, positive = activation	Potency
Cc1ccccc1OCC(=O)N/N=C/c1ccncc1	inactive: -0.163%	–
O=C(NCCSCc1c(F)cccc1Cl)Nc1ccccc1	inactive: -1.65%	–
O=C(COC(=O)c1cc(-c2cccs2)nc2ccccc12)NCc1ccco1	inactive: -2.43%	–
Cc1ccc(O)c(NC(=O)c2cc([N+](=O)[O-])ccc2Cl)c1	–	inconclusive [activator, single point]
CC1Sc2ccc(C(=O)Nc3ncccc3O)cc2NC1=O (centres undefined)	–	inconclusive [activator, full curve, poor fit]
Cc1ccc(NC(=O)COC(=O)CC2SC(N3CCCC3)=NC2=O)cc1 (centres undefined)	inactive: 3.5%	–
CC(=O)NN1C(=O)/C(=C/c2ccc(Br)o2)SC1=S	–	inconclusive [activator, partial curve, poor fit]
O=C(CC(=O)c1ccccc1)Nc1ccccn1	–	inconclusive [activator, partial curve, poor fit]
Cn1c(CCCOc2ccc(Cl)cc2Cl)nnc1SCC(=O)Nc1cccc(F)c1	–	inconclusive [activator, single point]
CN(C)c1ccc(NC(=S)c2ccccn2)cc1	inactive: -8.47%	–
O=C(/C=C/c1ccccc1O)c1ccc(Cl)cc1	–	inconclusive [activator, full curve, poor fit]
O=C(NCCC1=CCCCC1)c1ccc([N+](=O)[O-])cc1	–	inconclusive [activator, partial curve, poor fit]
N#Cc1c(/N=C/c2cc3ccccc3s2)sc2c1CCC2	–	inconclusive [activator, full curve, poor fit]
COc1cccc(-c2nnc(-c3ccccc3[N+](=O)[O-])o2)c1	–	inconclusive [activator, partial curve, poor fit]
CC(C)c1ccc(O)c(NC(=S)NC(=O)c2ccc3c(c2)OCO3)c1	–	inconclusive [activator, full curve]
Cc1ccc(OCc2cn3cccnc3n2)cc1	–	inconclusive [activator, partial curve, poor fit]
O=C(COc1ccc2ccc(=O)oc2c1)Nc1nccs1	–	inconclusive [activator, partial curve, poor fit]
CCC(O)(CC)C(=O)NN(C(=O)Nc1csc2c1CCCC2)c1ccccc1	–	inconclusive [activator, partial curve]
COc1ccc(N2CC(=O)N(c3ccccc3)C2=S)cc1	–	inconclusive [activator, full curve, poor fit]
O=C(Cn1c2c(sc1=O)C1c3ccccc3OCC1CS2)Nc1ccc(Cl)cc1 (centres undefined)	–	inconclusive [activator, single point]
CN1CCN(/N=C/c2cccc(Cl)c2Cl)CC1	–	inconclusive [activator, partial curve, poor fit]
CCC(=O)n1nc(-c2ccco2)nc1SCc1ccccc1	–	inconclusive [activator, full curve, poor fit]
